Results reported in the supplement of paper PMC9135407.
“And” between values parts separate entries of the source, which are not always exact repeats. Identical values can stand only once. Counter-ions that a name gives are not always drawn. In all, about 5,800 compounds went through this assay and about 620 (11%) showed activity.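 Rule for the calls: active = score above a cut-off or among the top three wells of a plate; in these data no inactive exceeds 0.85.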 Only a part is listed here, and it is no random draw.

Test system: primary human hepatic stellate cells (donor 1)
Assay: scaled lipid accumulation score (0 = DMSO-like, 1 = nortriptyline-like); higher = stronger HSC inactivation (lipid re-accumulation), active = hit call of the paper
Conditions: 48 h
[1] = library stock concentration: 3.33 mM
[2] = library stock concentration: 10 mM
[3] = library stock concentration: 1 mM
[4] = library stock concentration: 80 uM
[5] = library stock concentration: 400 uM
[6] = library stock concentration: 2 mM
[7] = library stock concentration: 5.8 mM

`N#C/C(=C1/SC[C@@H](c2ccc(Cl)cc2Cl)S1)n1ccnc1` [Luliconazole] was tested, and the “scaled lipid accumulation score” value [1] was inactive: ≤ 0 and the “scaled lipid accumulation score” value [2] was inactive: ≤ -0.001.

For `NC(N)=N[C@@H](CCC(=O)O)C(=O)O` [.alpha.-Guanidinoglutaric Acid], the “scaled lipid accumulation score” value [3] was inactive: ≤ 0.

In the case of `NC(N)=N[C@@H](CCC(=O)O)C(=O)O` [alpha-Guanidinoglutaric acid], the “scaled lipid accumulation score” value [2] was inactive: ≤ -0.007.

`COc1cc(N2CCN(C)CC2)ccc1Nc1ncc2c(n1)N(C)c1ccccc1C(=O)N2C` was tested, and the “scaled lipid accumulation score” value [4] was inactive: 0.087, the “scaled lipid accumulation score” value [5] was inactive: 0.062 and the “scaled lipid accumulation score” value [6] was inactive: 0.241. For the same compound, the “scaled lipid accumulation score” value [2] was inactive: 0.703.

`C[N+](C)(C)CC(O)CC(=O)[O-]` (stereo not given) [Carnitine hydrochloride] was tested, and the “scaled lipid accumulation score” value [2] was inactive: ≤ 0.

With `CCCCC[C@H](O)/C=C/[C@H]1C(=O)C=C[C@@H]1C/C=C\CCCC(=O)O` [Prostaglandin J2] the “scaled lipid accumulation score” value [3] was inactive: ≤ 0 and inactive: ≤ -0.021.

With `O=C1O[C@H]([C@@H](O)CO)C([O-])=C1O.[Na+]` [Sodium ascorbate] the “scaled lipid accumulation score” value [1] was inactive: ≤ 0 and the “scaled lipid accumulation score” value [2] was inactive: ≤ -0.001.

In the case of `Clc1ccc2nsnc2c1NC1=NCCN1` [Tizanidine HCl], the “scaled lipid accumulation score” value [1] was inactive: ≤ 0, the “scaled lipid accumulation score” value (library stock concentration: 7.9 mM) was inactive: 0.048 and the “scaled lipid accumulation score” value [2] was inactive: 0.029.

`Clc1ccc2nsnc2c1NC1=NCCN1` [Tizanidine hydrochloride] was tested, and the “scaled lipid accumulation score” value [2] was inactive: ≤ 0 and inactive: 0.009.

In the case of `Cc1cc(Nc2cc(N3CCN(C)CC3)nc(Sc3ccc(NC(=O)C4CC4)cc3)n2)n[nH]1`, the “scaled lipid accumulation score” value [4] was inactive: 0.003, the “scaled lipid accumulation score” value [5] was inactive: 0.063 and the “scaled lipid accumulation score” value [6] was inactive: 0.248. For the same compound, the “scaled lipid accumulation score” value [2] was inactive: 0.47.

`Cc1cc(Nc2cc(N3CCN(C)CC3)nc(Sc3ccc(NC(=O)C4CC4)cc3)n2)n[nH]1` [VX-680 (Tozasertib, MK-0457)] was tested, and the “scaled lipid accumulation score” value [1] was inactive: 0.193 and the “scaled lipid accumulation score” value [2] was inactive: 0.038.

For `Cc1cc(Nc2cc(N3CCN(C)CC3)nc(Sc3ccc(NC(=O)C4CC4)cc3)n2)n[nH]1` [Tozasertib (VX-680, MK-0457) (10 mM)], the “scaled lipid accumulation score” value [2] was inactive: 0.456.

With `Cc1cc(Nc2cc(N3CCN(C)CC3)nc(Sc3ccc(NC(=O)C4CC4)cc3)n2)n[nH]1` [Tozasertib (VX-680, MK-0457) (2 mM)] the “scaled lipid accumulation score” value [6] was inactive: ≤ -0.005.

In the case of `Cc1cc(Nc2cc(N3CCN(C)CC3)nc(Sc3ccc(NC(=O)C4CC4)cc3)n2)n[nH]1` [Tozasertib (VX-680, MK-0457) (0.4 mM)], the “scaled lipid accumulation score” value [5] was inactive: ≤ -0.005.

In the case of `CC(C)Oc1ccc2c(=O)c(-c3ccccc3)coc2c1`, the “scaled lipid accumulation score” value [2] was inactive: 0.264.

`CC(C)Oc1ccc2c(=O)c(-c3ccccc3)coc2c1` [Ipriflavone (Osteofix)] was tested, and the “scaled lipid accumulation score” value [1] was inactive: 0.039 and the “scaled lipid accumulation score” value [2] was inactive: ≤ 0.

In the case of `CC(C)OC(=O)CCC/C=C/C[C@H]1C(=O)C[C@@H](O)[C@@H]1/C=C/[C@@H](O)COc1cccc(C(F)(F)F)c1` [9-keto Fluprostenol isopropyl ester], the “scaled lipid accumulation score” value [3] was inactive: ≤ 0.

`Cc1cc2cc3c(C)cc(=O)oc3c(C)c2o1` [Trioxsalen] was tested, and the “scaled lipid accumulation score” value was inactive: ≤ 0, the “scaled lipid accumulation score” value (library stock concentration: 8.8 mM) was inactive: ≤ 0 and the “scaled lipid accumulation score” value [2] was inactive: ≤ 0.

`CCCCOc1ccc(C(=O)Nc2ccc(F)cc2F)cc1` was tested, and the “scaled lipid accumulation score” value [1] was inactive: 0.241 and the “scaled lipid accumulation score” value [2] was inactive: 0.22.

In the case of `Nc1nc(OCc2cc(Br)cs2)c2[nH]cnc2n1` [Lomeguatrib], the “scaled lipid accumulation score” value [1] was inactive: ≤ -0.009 and the “scaled lipid accumulation score” value [2] was inactive: 0.04.

`CC(=O)Nc1nnc(S(N)(=O)=O)s1` was tested, and the “scaled lipid accumulation score” value [2] was inactive: ≤ 0.

In the case of `CC(=O)Nc1nnc(S(N)(=O)=O)s1` [Acetazolamide], the “scaled lipid accumulation score” value was inactive: ≤ 0, the “scaled lipid accumulation score” value (library stock concentration: 9 mM) was inactive: 0.014 and the “scaled lipid accumulation score” value [2] was inactive: ≤ 0.

In the case of `NC1(Cc2ccc(Cl)cc2)CCN(c2ncnc3[nH]ccc23)CC1`, the “scaled lipid accumulation score” value [1] was inactive: 0.47.

With `O=C(O)CCC(C(=O)O)N1C(=O)c2ccccc2C1=O` [L-Glutamic acid, N-phthaloyl-] the “scaled lipid accumulation score” value [2] was inactive: 0.174.

In the case of `C[C@]12CC[C@@H]3c4ccc(O)cc4C[C@@H](CCCCCCCCC[S+]([O-])CCCC(F)(F)C(F)(F)F)[C@H]3[C@@H]1CC[C@@H]2O` (stereo not given in full) [Fulvestrant], the “scaled lipid accumulation score” value [1] was inactive: ≤ 0 and the “scaled lipid accumulation score” value [2] was inactive: ≤ 0 and inactive: 0.194.

`C[C@]12CC[C@@H]3c4ccc(O)cc4C[C@@H](CCCCCCCCC[S+]([O-])CCCC(F)(F)C(F)(F)F)[C@H]3[C@@H]1CC[C@@H]2O` (stereo not given in full) was tested, and the “scaled lipid accumulation score” value [2] was inactive: ≤ -0.006.

`O=C(O)[C@@H]1[C@H]2C[C@H]3c4[nH]c5ccccc5c4CCN3C[C@@H]2CC[C@@H]1O` [Yohimbinic acid monohydrate] was tested, and the “scaled lipid accumulation score” value was inactive: ≤ 0.

For `Clc1ccc(C2(c3ccc(-c4cn[nH]c4)cc3)CCNCC2)cc1`, the “scaled lipid accumulation score” value [4] was inactive: 0.375, the “scaled lipid accumulation score” value [5] was inactive: 0.622 and the “scaled lipid accumulation score” value [2] was inactive: 0.425.

`CO/N=C(\C(=O)N[C@@H]1C(=O)N2C(C(=O)O)=C(COC(C)=O)CS[C@H]12)c1csc(N)n1` was tested, and the “scaled lipid accumulation score” value [2] was inactive: ≤ 0.

With `CO/N=C(\C(=O)N[C@@H]1C(=O)N2C(C(=O)O)=C(COC(C)=O)CS[C@H]12)c1csc(N)n1` [Cefotaxime sodium] the “scaled lipid accumulation score” value [2] was inactive: ≤ 0 and inactive: 0.141.

For `CO/N=C(\C(=O)N[C@@H]1C(=O)N2C(C(=O)O)=C(COC(C)=O)CS[C@H]12)c1csc(N)n1` [Cefotaxime sodium salt], the “scaled lipid accumulation score” value was inactive: ≤ 0.

For `CO/N=C(\C(=O)N[C@@H]1C(=O)N2C(C(=O)O)=C(COC(C)=O)CS[C@H]12)c1csc(N)n1` [Cefotaxime acid], the “scaled lipid accumulation score” value (library stock concentration: 4.4 mM) was inactive: ≤ 0.

For `CCCCc1oc2ccccc2c1C(=O)c1cc(I)c(OCCN(CC)CC)c(I)c1.Cl` [Amiodarone hydrochloride], the “scaled lipid accumulation score” value [2] was active: 1.04.

For `COC1CCC(C(=O)c2ccc3nc4c(cc3c2)CCCO4)CC1` (stereo not given), the “scaled lipid accumulation score” value [2] was inactive: ≤ -0.001.

In the case of `C=C[C@](C)(O)CC[C@@H]1[C@@]2(C)CCCC(C)(C)[C@@H]2CC[C@@]1(C)O` [Sclareol], the “scaled lipid accumulation score” value [1] was inactive: ≤ 0 and the “scaled lipid accumulation score” value [2] was inactive: 0.568.

In the case of `C=C1O[C@@](CO)(n2cnc3c(N)ncnc32)[C@H](O)[C@@H]1O` [Decoyinine], the “scaled lipid accumulation score” value (library stock concentration: 17.9 mM) was inactive: ≤ -0.012.

With `NC(=O)C1CCCc2c1[nH]c1ccc(Cl)cc21` (stereo not given) [EX 527 (Selisistat)] the “scaled lipid accumulation score” value [1] was inactive: ≤ 0 and the “scaled lipid accumulation score” value [2] was inactive: 0.039.

For `NC(=O)C1CCCc2c1[nH]c1ccc(Cl)cc21` (stereo not given), the “scaled lipid accumulation score” value [4] was inactive: ≤ 0, the “scaled lipid accumulation score” value [5] was inactive: ≤ 0 and the “scaled lipid accumulation score” value [6] was inactive: ≤ 0. The “scaled lipid accumulation score” value [2] was inactive: ≤ 0.

For `O=C(/C=C/c1ccc(O)c(O)c1)O[C@H](Cc1ccc(O)c(O)c1)C(=O)O` [Rosmarinic acid], the “scaled lipid accumulation score” value [2] was inactive: ≤ 0 and inactive: 0.014.

In the case of `O=C(/C=C/c1ccc(O)c(O)c1)O[C@H](Cc1ccc(O)c(O)c1)C(=O)O` [Rosmarinic Acid], the “scaled lipid accumulation score” value [3] was inactive: 0.002.

With `C1CCC(N=C(NC23CC4CC(CC(C4)C2)C3)N2CCOCC2)CC1` the “scaled lipid accumulation score” value [2] was inactive: 0.228.

With `CCS(=O)(=O)c1cccc(-c2cc(C(=O)NC3CCN(C)CC3)c(C)c3[nH]c4ncc(C)cc4c23)c1` the “scaled lipid accumulation score” value [1] was inactive: 0.629 and the “scaled lipid accumulation score” value [2] was inactive: 0.649.

For `NC1CCN(O)C1=O` (stereo not given), the “scaled lipid accumulation score” value [2] was inactive: ≤ 0.

With `COC(=O)[C@H](Cc1ccccc1)NC(=O)[C@@H](N)CC(=O)O` [Aspartame] the “scaled lipid accumulation score” value [1] was inactive: ≤ 0, the “scaled lipid accumulation score” value (library stock concentration: 6.8 mM) was inactive: ≤ 0 and the “scaled lipid accumulation score” value [2] was inactive: ≤ 0 and inactive: ≤ -0.027.

With `C[C@@H]1CCC[C@H](C)N1NC(=O)c1ccc(Cl)c(S(N)(=O)=O)c1` [Clopamide] the “scaled lipid accumulation score” value was inactive: 0.076 and the “scaled lipid accumulation score” value [7] was inactive: ≤ -0.006 and inactive: ≤ 0.

For `CCn1c(N)c(C(=O)NC)c(=O)c2ccc(C#CC(C)(O)COC)nc21` (stereo not given), the “scaled lipid accumulation score” value [1] was inactive: 0.015 and the “scaled lipid accumulation score” value [2] was inactive: 0.157.

`CCOC(=O)C1=C(C)NC(=S)NC1c1cccc(O)c1` (stereo not given) [Monastrol] was tested, and the “scaled lipid accumulation score” value [2] was inactive: ≤ -0.006 and the “scaled lipid accumulation score” value (library stock concentration: 17.1 mM) was inactive: 0.086.

In the case of `CC[C@H]1OC(=O)[C@H](C)[C@@H](O[C@H]2C[C@@](C)(OC)[C@@H](O)[C@H](C)O2)[C@H](C)[C@@H](O[C@@H]2O[C@H](C)C[C@H](N(C)C)[C@H]2O)[C@](C)(O)C[C@@H](C)CN(C)[C@H](C)[C@@H](O)[C@]1(C)O` [Azithromycin dihydrate], the “scaled lipid accumulation score” value [2] was inactive: 0.846.

In the case of `CC[C@H]1OC(=O)[C@H](C)[C@@H](O[C@H]2C[C@@](C)(OC)[C@@H](O)[C@H](C)O2)[C@H](C)[C@@H](O[C@@H]2O[C@H](C)C[C@H](N(C)C)[C@H]2O)[C@](C)(O)C[C@@H](C)CN(C)[C@H](C)[C@@H](O)[C@]1(C)O` [Azithromycin], the “scaled lipid accumulation score” value [1] was inactive: 0.261 and the “scaled lipid accumulation score” value [2] was inactive: 0.672 and inactive: 0.411 and inactive: 0.753.

For `OCCn1cc(-c2ccc3c(c2)CC/C3=N\O)c(-c2ccncc2)n1`, the “scaled lipid accumulation score” value [4] was inactive: 0.006, the “scaled lipid accumulation score” value [5] was inactive: 0.086 and the “scaled lipid accumulation score” value [6] was inactive: ≤ -0.009. The “scaled lipid accumulation score” value [1] was inactive: 0.041 and the “scaled lipid accumulation score” value [2] was inactive: ≤ 0 and inactive: ≤ -0.009.

`CCC(C)(C)N=C(NC#N)Nc1cccnc1` was tested, and the “scaled lipid accumulation score” value (library stock concentration: 9.9 mM) was inactive: ≤ 0.

`CCOC(=O)C(Cc1ccc(O)cc1)NC(C)=O` (stereo not given) [Acetyl tyrosine ethyl ester] was tested, and the “scaled lipid accumulation score” value [2] was inactive: ≤ 0.

In the case of `CN[C@H]1CC[C@@H](c2ccc(Cl)c(Cl)c2)c2ccccc21` [Sertraline], the “scaled lipid accumulation score” value [2] was inactive: 0.147 and inactive: 0.63.

`CN[C@H]1CC[C@@H](c2ccc(Cl)c(Cl)c2)c2ccccc21` [Sertraline HCl] was tested, and the “scaled lipid accumulation score” value [1] was inactive: 0.103 and the “scaled lipid accumulation score” value [2] was inactive: 0.033.

In the case of `CN[C@H]1CC[C@@H](c2ccc(Cl)c(Cl)c2)c2ccccc21` [Sertraline hydrochloride], the “scaled lipid accumulation score” value [7] was inactive: 0.777 and the “scaled lipid accumulation score” value [2] was inactive: ≤ -0.055 and inactive: 0.281 and inactive: 0.318.

`COCCNC(=O)COc1ccc(OCCNC[C@H](O)COc2ccccc2)cc1` [ZD 7114 hydrochloride] was tested, and the “scaled lipid accumulation score” value [2] was inactive: 0.134.
